The values below come from PubChem BioAssay (NCATS).

Each structure is given as a SMILES string. The list shows a part of the results. Shown are side measurements of this screen, not its main read-out; they come without a call. For part of these data: Compounds called inactive in the main read-out are mostly missing here. Potencies come from curve fits of mixed quality, noted in brackets.

The nature of test [1]: qHTS drug screen for cell cycle checkpoint inhibitors in PARPi-resistant BRCA-mutant ovarian cancer cell lines. (AID 1963452). Particulars: PEO1/OlaR viability, CellTiter-Glo luminescence, 96 h. Put shortly:
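PEO1, PEO4 and PEO1/OlaR ovarian cancer cells, 600 per well, exposed 96 h at 37C to a dilution series. Viability read by CellTiter-Glo luminescence, normalized to DMSO and empty wells; activity summarized as Z-AUC.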

Test [2] in a line: qHTS for identification of novel therapeutic agents for treatment of microphthalmiaassociated transcription factor (MiT) renal cell carcinoma (RCC) (AID 1963991). Particulars: CellTiter-Glo, 48 h; for z-score: stronger effect = lower value. The procedure, abridged: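 Viability of three TFE3-fusion renal carcinoma lines measured by CellTiter-Glo after 48 h treatment with each of 1912 compounds at 11 concentrations. Responses scaled between DMSO (100%) and empty wells (0%) before curve fitting.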
On the technique in general: qHTS replaces the single test concentration by a dilution series.

The mark [3] stands for this setting: measured here: PEO1 parental viability.
The mark [4] stands for this setting: TFE3-RCC UOK109 viability, measured here: UOK109 Z-AUC.
[5] abbreviates: TFE3-RCC viability, measured here: UOK124 Z-AUC.
Setting [6] is: TFE3-RCC viability, measured here: UOK124 cell viability.
Setting [7] is: TFE3-RCC viability, measured here: UOK145 Z-AUC.
Where [8] appears, read: TFE3-RCC viability, measured here: UOK145 cell viability.
Tags give direction and shape of the fitted curve.

The term AC50 denotes the concentration at which the activity in the assay is half-maximal. For `CCOc1ccccc1-n1c(C(C)N2CCN(C(=O)COc3ccc(Cl)cc3)CC2)nc2ccccc2c1=O` (centres undefined), the AC50 in test [1] (setting [3]) was 7.76 µM [falling, partial curve]; in test [1] (measured here: PEO4 viability) it was 11 µM [falling, partial curve].

Turning to `CC1(N2CCC(n3c([C@@H]4CCCNC4)nc4ccccc43)CC2)CCCCCCC1`, the AC50 in test [1] (setting [3]) is 19.5 µM [falling, partial curve]; in test [1] (measured here: PEO4 viability), 17.4 µM [falling, single point]; in test [2] (setting [6]), 16.6 µM [falling, partial curve]; in test [2] (setting [8]), 9.35 µM [falling, full curve]. Further, the results for the z-score in test [2] (setting [4]), in test [2] (setting [5]) and in test [2] (setting [7]) were -0.334, -0.309 and -0.759, respectively.

With `Cc1ccccc1-n1c(Cn2ncc3c(N)ncnc32)nc2cccc(C)c2c1=O`, the AC50 in test [2] (setting [6]) is 0.0526 µM [falling, full curve]; in test [2] (setting [8]), 0.296 µM [falling, full curve].

In the case of `CN(C)CCN(C)CCc1ccc(Cl)c(Cl)c1`, the AC50 was 0.0078 µM [rising, full curve, poor fit] in test [1] (setting [3]) and 14.8 µM [falling, partial curve, poor fit] in test [2] (setting [6]). In addition, the z-score in test [2] (setting [4]) was found to be 0.761; in test [2] (setting [5]) it was 0.878; in test [2] (setting [7]) it was 0.702.

As for `O=C(O)CNC(=O)c1c(O)c2ccccc2n(Cc2ccccc2)c1=O`, the figures for the z-score in test [2] (setting [4]), in test [2] (setting [5]) and in test [2] (setting [7]) were 0.463, 0.475 and 0.634, respectively.

For `CCCCCCC(C)(C)c1cc(O)c2c(c1)OC(C)(C)C1CC=C(CO)C[C@H]21` (some centres undefined), the AC50 in test [1] (setting [3]) is 24.5 µM [falling, single point]; in test [1] (measured here: PEO4 viability), 15.5 µM [falling, single point].

On to `C[C@@H]1O[C@@H](O[C@@H]2C=C3CC[C@@H]4[C@@H](CC[C@]5(C)[C@H](c6ccc(=O)oc6)CC[C@@]45O)[C@@]3(C)CC2)[C@H](O)[C@H](O)[C@H]1O`, for which the AC50 is 0.0264 µM [falling, full curve] in test [2] (setting [6]) and 0.0187 µM [falling, full curve] in test [2] (setting [8]).

Take `CCN1CCN(C(=O)Cc2ccc(Nc3ncc(F)c(Nc4ccc(C(=O)Nc5ccccc5Cl)cc4)n3)cc2)CC1`: the AC50 is 17.4 µM [falling, partial curve] in test [1] (setting [3]); 1.38 µM [falling, full curve] in test [1] (measured here: PEO4 viability); 6.62 µM [falling, full curve] in test [2] (setting [6]); 26.4 µM [falling, partial curve] in test [2] (setting [8]). The z-score in test [2] (setting [4]) is -0.78; in test [2] (setting [5]) it was -1.24; in test [2] (setting [7]), 0.315.

For `CN[C@@H]1Cc2cccc3[nH]c(=O)n(c23)C1`, the z-score is 0.882 in test [2] (setting [4]), 0.497 in test [2] (setting [5]) and 0.456 in test [2] (setting [7]).

With `CC(C)N[C@@H]1CCn2c(=O)[nH]c3cccc(c32)[C@@H]1O`, the z-score in test [2] (setting [4]) is -1.07; in test [2] (setting [5]) it was 1.01; in test [2] (setting [7]), 1.54. Also, the AC50 in test [2] (setting [8]) is 11.8 µM [falling, partial curve].

Consider `C[C@]12CC[C@H]3[C@@H](CC[C@@]45O[C@H]4C(O)=C(C#N)C[C@]35C)[C@H]1CC[C@H]2O`, for which the z-score in test [2] (setting [4]) was -0.101; in test [2] (setting [5]), 0.465; in test [2] (setting [7]), 0.455. The AC50 in test [2] (setting [6]) is 0.00105 µM [rising, full curve, poor fit].

Turning to `CCOC(=O)Nc1ccc(NCc2ccc(F)cc2)cc1N`, the z-score in test [2] (setting [4]) is -0.119; in test [2] (setting [5]), 0.84; in test [2] (setting [7]) it was 0.157. The AC50 in test [2] (setting [8]) was 26.4 µM [falling, partial curve, poor fit].

Turning to `N#C[C@H](O[C@@H]1O[C@H](CO[C@@H]2O[C@H](CO)[C@H](O)[C@H](O)[C@H]2O)[C@H](O)[C@H](O)[C@H]1O)c1ccccc1`, the results for the z-score in test [2] (setting [4]), in test [2] (setting [5]) and in test [2] (setting [7]) were 0.179, -0.24 and 0.131, respectively. Besides, the AC50 in test [2] (setting [6]) was 26.4 µM [falling, partial curve]; in test [2] (setting [8]), 20.9 µM [falling, partial curve].

On to `O=C1C=CC[C@@H]2[C@H]3CCCN4CCC[C@@H](CN12)[C@@H]34`, for which the figures for the z-score in test [2] (setting [4]), in test [2] (setting [5]) and in test [2] (setting [7]) were 0.941, 0.412 and 0.651, respectively. In test [2] (setting [8]), the AC50 is 18.7 µM [falling, partial curve].

As for `CC(C)(C)c1cc(C=C(C#N)C#N)cc(Br)c1O`, the z-score is 0.139 in test [2] (setting [4]), 0.314 in test [2] (setting [5]) and 0.143 in test [2] (setting [7]). Besides, the AC50 in test [2] (setting [6]) is 20.9 µM [falling, partial curve]; in test [2] (setting [8]), 20.9 µM [falling, partial curve].

As for `C[C@@H]1CC[C@@]2(OC1)O[C@H]1C[C@H]3[C@@H]4CC=C5C[C@@H](O[C@@H]6O[C@H](CO)[C@@H](O[C@@H]7O[C@@H](C)[C@H](O)[C@@H](O)[C@@H]7O)[C@H](O)[C@@H]6O[C@@H]6O[C@@H](C)[C@H](O)[C@@H](O)[C@@H]6O)CC[C@]5(C)[C@@H]4CC[C@]3(C)[C@@H]1[C@H]2C`, the z-score in test [2] (setting [4]) is -0.654; in test [2] (setting [5]), -1.35; in test [2] (setting [7]) it was -0.526. Also, the AC50 in test [2] (setting [6]) was 5.9 µM [falling, full curve]; in test [2] (setting [8]) it was 10.5 µM [falling, partial curve].

On to `C[C@]12CCC(=O)C=C1CC[C@@H]1[C@H]3CC[C@](C)(O)[C@@]3(C)CC[C@@H]12`, for which the z-score turned out to be 1.18 in test [2] (setting [4]), 0.907 in test [2] (setting [5]) and 2.33 in test [2] (setting [7]). For the same molecule, the AC50 in test [2] (setting [6]) was 27 µM [falling, partial curve, poor fit]; in test [2] (setting [8]), 54 µM [falling, single point].
